The values that follow come from the supplement of paper PMC3334620.

Whole data set: some 33,000 sequences, median “E-score (-0.5 to 0.5)” near -0.032, cut for the highest 2% near 0.36. The list shows a part of the results.

This assay has as its target T1, Sko1 (UniProt Q02100).
T1 sequence: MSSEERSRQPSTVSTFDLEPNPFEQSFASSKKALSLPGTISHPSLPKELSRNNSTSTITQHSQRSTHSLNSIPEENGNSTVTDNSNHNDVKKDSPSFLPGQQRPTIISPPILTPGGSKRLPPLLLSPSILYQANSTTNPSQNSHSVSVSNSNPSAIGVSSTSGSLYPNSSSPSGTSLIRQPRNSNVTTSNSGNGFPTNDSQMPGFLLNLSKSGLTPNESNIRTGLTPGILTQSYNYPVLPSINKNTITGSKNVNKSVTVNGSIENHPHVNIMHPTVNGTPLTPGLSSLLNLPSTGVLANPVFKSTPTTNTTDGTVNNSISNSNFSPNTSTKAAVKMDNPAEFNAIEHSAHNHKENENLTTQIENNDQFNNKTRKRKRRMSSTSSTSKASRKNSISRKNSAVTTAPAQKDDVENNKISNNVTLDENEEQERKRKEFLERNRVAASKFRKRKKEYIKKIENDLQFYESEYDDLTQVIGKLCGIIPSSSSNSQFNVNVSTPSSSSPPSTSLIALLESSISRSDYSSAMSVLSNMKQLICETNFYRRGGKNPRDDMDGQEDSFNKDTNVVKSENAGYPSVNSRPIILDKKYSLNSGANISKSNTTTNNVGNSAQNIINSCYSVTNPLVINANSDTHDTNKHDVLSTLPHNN
Nature of the assay: PBM E-score (8-mer binding enrichment) (E-score (-0.5 to 0.5)); higher = stronger / more preferred TF binding; most listed sequences are background and not binding sites. As to conditions: protein concentration: 200 nM; construct: GST-full length. A digest of the protocol: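 Yeast transcription factors, full-length or as DNA-binding domains, were expressed with a GST tag using PURExpress in vitro transcription/translation. At about 100-200 nM they were applied to universal all-10-mer Agilent arrays, double-stranded by primer extension on fresh or once-stripped slides. Fluorescent anti-GST detected bound protein, and masliner normalised the scans. E-scores for ungapped eight-base words, pooled with reverse complements, came from the Universal PBM Analysis Suite.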
With CTTCCATA, the “PBM E-score” value was -0.00611.
The value for GTCGTTTA was 0.266.
GGGGGGCA: the “PBM E-score” value is -0.211.
The value for GGCCGTTA was -0.125; that for GGCTAGCC was -0.379; that for AGTTAACG was 0.169.
The value for ACGGGCTG was -0.139.
The value for TGACCCCA was -0.0496.
As for CAGTCTAA, the “PBM E-score” value worked out at 0.0503.
The value for TCGGTAGA was 0.0245; that for AAAATCTT was 0.0968; that for AGAGGGAG was -0.139.
In the case of CTTAGACC, the “PBM E-score” value was -0.0125.
The value for ACCGGCAC was -0.163.
The value for ACAGTGAG was -0.0194.
Take GGGCATTA: the “PBM E-score” value was -0.227.
For CTTAGCTC, the “PBM E-score” value was -0.0962.
The value for AATTACCT was 0.19; that for CCTTCCAC was -0.0222.
The value for GCTCACTA was -0.102; that for ACTTGTAC was -0.00416; that for CCTCTTCC was -0.343.
Regarding ATGGTAGC, the “PBM E-score” value is -0.243.
The value for GACGAACC was 0.0641; that for TACCCTCA was -0.101.
Consider GCCCAGTA, for which the “PBM E-score” value is -0.154.
The value for AGGGGCTC was -0.14.
The value for CCAGCGCA was -0.189; that for AAGGTACC was -0.202.
The value for GTTACAAA was 0.213; that for CGCGGTTC was 0.106; that for TAAGCGTA was 0.0865.
As to AGGAGGCG, the “PBM E-score” value is -0.108.
The value for GAGGCACA was -0.214.
The value for AGCCTGCA was -0.0657; that for CTATATAG was 0.123.
ATTGCCGA: the “PBM E-score” value was -0.135.
As for CTTCCCCA, the “PBM E-score” value is -0.117.
Take AGAATGGA: the “PBM E-score” value was 0.0967.
The value for CCAATTTA was 0.129; that for AACGCCTC was -0.352.
The value for CCAGTAAC was -0.136; that for CTAAAGTA was -0.0143; that for GGTGTACA was -0.0227.
Regarding ACCCGTAG, the “PBM E-score” value is -0.444.
With ACAACCTC, the “PBM E-score” value is -0.186.
CGCTTATC: the “PBM E-score” value was -0.165.
Turning to ATCGCAAG, the “PBM E-score” value is -0.178.
Turning to CAGGGGCG, the “PBM E-score” value was -0.299.
AACGACCT: the “PBM E-score” value is -0.0493.
The value for CTGTGTGA was 0.055.
The value for CATTGCGG was -0.109.
The value for GCGTGTGA was 0.107; that for TTCATGAA was 0.127.
CAGCGCGA: the “PBM E-score” value was determined as 0.066.
The value for CGCTACCG was -0.0311; that for AGCATAGC was 0.148.
GGTCTCTA: the “PBM E-score” value is -0.124.
GGAGTAAC: the “PBM E-score” value is -0.136.
The value for AGCGATCA was -0.0729; that for GCATCCCA was -0.257; that for GGTTGGTA was 0.119.
For AAAGCAGG, the “PBM E-score” value was -0.0944.
The value for TGCCGGCA was -0.0955.
The value for CATGGGGG was -0.197; that for GCCCCGAA was -0.247.
The value for CAGCTCTA was -0.155; that for CTATGATA was 0.0697; that for GTGCAGGA was -0.0573.
As to AAGTTCCG, the “PBM E-score” value is -0.137.
The value for AAACGGGA was -0.176; that for AAGCTCCT was -0.186.
The value for AAAAATCG was 0.0645.
The value for ACTTCTTA was 0.129; that for TACTGAGA was -0.0799.
For CTTGTGGC, the “PBM E-score” value was -0.19.
ATTATAAT: the “PBM E-score” value was found to be 0.209.
Regarding CACTTAAC, the “PBM E-score” value is -0.0297.
As for GTACGTTA, the “PBM E-score” value was determined as 0.395.
The value for ACCTCCGT was -0.188.
The value for CACGGCAC was -0.216.
The value for GGGTCTTA was 0.0227; that for ACAATCAG was 0.241.
In the case of ACGCCAGT, the “PBM E-score” value was 0.0136.
The value for ACCAACTC was 0.129; that for CCAGAAAC was -0.134.
